PubChem BioAssay (NCI)
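Grown in 96-well plates, cells were treated for 48 hours with each compound at five concentrations. Insufficient inhibition: endpoint recorded as highest concentration tested. At the GI50, growth is halved. TGI: concentration producing complete growth inhibition.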

System: NCI-H322M lung
Experiment: NCI-60 cell line screen, 48 h

Structure (SMILES)	TGI [µM]	GI50 [µM]
COc1ccc(-c2cc3[nH]nc(N)c3c(=O)o2)cc1	> 100	–
Cc1ccc2c(c1)-c1nc(N)c(C#N)c(-c3ccccc3)c1CCS2(=O)=O	90.6	–
BrC(c1cccc2ccccc12)c1cccc2ccccc12	48.7	–
O=[N+]([O-])c1ccc(N/N=C/c2ccc(OCCCCCCCCCCCO)cc2)c([N+](=O)[O-])c1	> 100	–
CCC(=O)Nc1ccc(N2C(=O)C(Cl)C2c2ccc(SC)cc2)cc1 (centres undefined)	> 100	–
COc1cc(C(O)(CC#N)c2cc3c(cc2Br)OCO3)cc(OC)c1OC (centres undefined)	> 100	–
O=c1c(-c2ccccc2)coc2cc(OC/C(=N/O)c3ccccc3)ccc12	39.9	16.5
N#CC1CC2(CCN1C(=O)c1ccccc1)OCCO2 (centres undefined)	> 100	–
C[C@@H]1CC[C@@H]2[C@@H](C1)O[C@@H]([C@H](C)OCc1ccccc1)SC2(C)C	68.4	–
CCNC(=O)O[C@H]1CN[C@H](C#Cc2cc3ncnc(Nc4ccc(OCc5cccc(F)c5)c(Cl)c4)c3s2)C1	12.9	0.836
CC1(C)CCC[C@]2(C)[C@H]3[C@H](C#N)c4cc(O)c(O)cc4O[C@@]3(C)CC[C@@H]12	> 10	–
O=C(Nc1nc(C23CC4CC(CC(C4)C2)C3)cs1)c1cc2ccccc2oc1=O	> 100	–
